In article PMC12040169 (PLOS Biology, 2025):
The list shows a part of the results.

The compounds below were run on T1, C. trachomatis L2/434/Bu expressing GFP (CTL2-GFP). Conditions: total inclusion area; 28.5 h, 10 µM; inhibitor.
T1 construct: L2/434/Bu GFP intracellular growth in HeLa cells
Design: species or system HeLa; C. trachomatis total inclusion area by high-content imaging, normalised to DMSO
Procedure, shortened: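 Following bulk GFP and resorufin fluorescence reads, infected cells were fixed, Hoechst-stained and imaged on a high-content platform. Inclusion total area and number per well served as growth proxies; nuclei counts indicated host viability. MICs were derived as for the fluorescence assay.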

| SMILES | % of control remaining |
| --- | --- |
| O=C(O)c1ccc2[nH]c3c(c2c1)CCCC3 [CBK001252] | 98.6454 |
| CCCOc1ccc(CCNc2ncnc(N)n2)cc1 [CBK262744] | 78.7574 |
| CCCCN(C(C)=O)c1c(CC)nc2ccc(C(=O)NCc3ccccc3OC)cn12 [CBK145761] | 94.9937 |
| COc1ccc(NC(=O)CC2NC3CCCCC3NC2=O)cc1 (stereo not shown) [CBK266488] | 102.757 |
| CCCNC(=O)c1ccc(C)c(NC(=O)N[C@@H](CO)c2ccccc2)c1 [CBK306609] | 98.4445 |
| CCOC(=O)C1CCN(S(=O)(=O)c2ccc(OC)c(C)c2C)CC1 [CBK268955] | 110.767 |
| Cc1cc(-c2nn3c(-c4ccccc4)nnc3s2)c2ccccc2n1 [CBK267187] | 118.291 |
| CCc1c(C)nc2ccccc2c1SCCOC(=O)Nc1ccc(OC)cc1 [CBK155554T] | 92.3916 |
| O=C1c2cccc3cccc(c23)C(=O)N1CCN1CCN(S(=O)(=O)c2ccccc2[N+](=O)[O-])CC1 [CBK262530] | 84.7056 |
| COc1ccc(CN2C(=S)N(c3ccc(Cl)cc3)[C@H]3[C@@H]2[C@H]2OC(=O)[C@@H]3C[C@H]2O)cc1 [CBK288935] | 113.628 |
| c1ccc2c(c1)NC(c1ccncc1)n1nnnc1-2 (stereo not shown) [CBK288171] | 87.7209 |
| Cc1sc2nc(C(C)N3CCN(Cc4ccco4)CC3)[nH]c(=O)c2c1C (stereo not shown) [CBK306066] | 36.2645 |
| C(=C\c1nccnc1OC(c1ccccc1)c1ccccc1)/c1ccccc1 [CBK106878] | 108.843 |
| O=C1N=C(NC2CCCCCC2)SC1CC(=O)N1CCCC1 (stereo not shown) [CBK063342] | 92.7976 |
| O=C(O)CCC(=O)Nc1ccccc1C(=O)Nc1ccccc1 [CBK058571] | 89.2905 |
| Cc1ccnc(NCC2CCN(c3ccc4nnnn4n3)C2)c1 (stereo not shown) [CBK306348] | 19.9977 |
| CSCCC(=O)Nc1ccc2ncccc2c1 [CBK159818] | 91.0392 |
| Cc1cccc(C)c1NC(=O)CN1CCCN(c2nccc(OCC3COc4ccccc4O3)n2)CC1 (stereo not shown) [CBK083974] | 122.031 |
| C=CCn1c(-c2sc(NC(=O)c3cc4ccccc4s3)nc2C)n[nH]c1=S [CBK295303] | 95.8474 |
| Cc1ccccc1CN1CC[C@H]2[C@@H](C1)[C@H](c1ccsc1)CN2C(=O)c1ccccc1 [CBK285618] | 94.5586 |
| COC(=O)CC[C@H]1CNC(=O)[C@@H]2[C@@H](CCN2S(C)(=O)=O)N1C [CBK289019] | 103.349 |
| Cn1cc(CNCC2CCN(c3ccccc3)C2)c(-c2ccncc2)n1 (stereo not shown) [CBK306317] | 5.127 |
| O=C1COc2ccc(S(=O)(=O)NCCOc3ccccc3)cc2N1 [CBK268480] | 88.0319 |
| COc1ccc2c(-n3cncn3)ccnc2c1 [CBK025957] | 131.093 |
| CCN(CC)C(=O)c1ccccc1NS(=O)(=O)c1cc(Br)c(Cl)s1 [CBK045424] | 74.4056 |
| CN(C)c1ccc(CC(=O)N2CCCc3ccccc32)cc1 [CBK200347] | 124.905 |
| Cc1ccc(-c2ncc(OC3CCN(C)CC3)nc2N)c(C)c1 [CBK145139] | 90.0466 |

| SMILES | % of control remaining |
| --- | --- |
| CCCc1[nH]nc(O)c1-c1ccc(OC)cc1 [CBK075135] | 103.13 |
| O=C(CCn1c(-c2ccncc2)cc2cccnc21)N1CCCC1 [CBK282151] | 95.0276 |
| Cc1c(N2C(=O)/C(=C3\C(=O)Nc4ccc([N+](=O)[O-])cc43)SC2=S)c(=O)n(-c2ccccc2)n1C [CBK263071] | 81.8348 |
| NC1=NC(=O)C2(COC(c3cccnc3)OC2)S1 (stereo not shown) [CBK019981] | 81.4432 |
| O=C(Nc1ccccc1C(=O)N1CCCC1)c1cc(=O)[nH]c2ccccc12 [CBK295664] | 124.876 |
| CN(C)CCCOc1nccnc1N1CCCC1 [CBK113427] | 91.6409 |
| O=C1NCCN(C(=O)c2[nH]nc3c2CCCCC3)C1Cc1ccccc1-c1ccc(F)cc1 (stereo not shown) [CBK285831] | 107.008 |
| O=C1CC(c2ccco2)CC(=O)C1=CNCCN1CCNCC1 (stereo not shown) [CBK263668] | 105.76 |
| NC(=O)COc1ccc(CNC(=O)CN2CCCCCC2)cc1 [CBK306332] | 30.8894 |
| CCn1c(CC2CCN(c3ncc(C#N)c(N)n3)CC2)nn(C)c1=O [CBK306788] | 85.7922 |
| OC1(c2ccc(F)cc2)CC2CCC(C1)N2CC1=CCCOC1 (stereo not shown) [CBK282942] | 75.0028 |
| Cc1ccc(NC(=S)N2CCCC2C(=O)O)c(C)c1 (stereo not shown) [CBK007148] | 79.5989 |
| CC1(C)Cc2nc(-c3ccccc3)nc(SCC(=O)NCCc3ccccc3)c2CO1 [CBK267205] | 113.307 |
| CC(=O)Nc1ccc(-c2nc(-c3ccc(-c4ccccc4)cc3)c(-c3ccc(-c4ccccc4)cc3)[nH]2)cc1 [CBK262620] | 102.103 |
| CN(C)/N=C\c1cccc(O)c1 [CBK015814] | 39.4445 |
| COc1ccc(NC(=O)c2cc(C(C)C)n(-c3nc4ccccc4s3)n2)cc1 [CBK287667] | 79.8943 |
| COc1ccc(C(=O)NNC(=O)c2cccc(O)c2)cc1 [CBK262594] | 88.4414 |
| CC(=O)N1CCN(CC(O)Cn2c3ccccc3c3ccccc32)CC1 (stereo not shown) [CBK305588] | 39.3486 |
| CC(=O)N1CCC(O)(C2(C)OC(NC3C4CC5CC(C4)CC3C5)=NC2=O)CC1 (stereo not shown) [CBK138181] | 88.5764 |
| Clc1cc2nc(Sc3ccccn3)c(N3CCCC3)nc2cc1Cl [CBK093754] | 90.0615 |
| COc1cc(CN2CCN(c3ccccn3)CC2)ccc1OCc1ccccc1 [CBK261906] | 97.4383 |
| CCCc1ccc(S(=O)(=O)N2CCN(Cc3ccc4c(c3)OCO4)CC2)cc1 [CBK074735] | 78.1522 |
| Cc1ccc2cc(CN(Cc3ccc(N(C)C)cc3)C(=O)NC3CCCCC3)c(=O)[nH]c2c1C [CBK132070] | 51.8488 |
| Cc1nc(C(=O)N2CCC3(CCCCOc4ccccc4C(=O)NCCNC3=O)CC2)co1 [CBK292089] | 110.65 |
| Cc1cccc(CNc2nccnc2-c2cccs2)c1 [CBK036808] | 96.7377 |
| CNCS(=O)(=O)C(F)(F)S(=O)(=O)N(C)C [CBK018820] | 99.823 |
| CC(C)CNC(=O)C1CCN(C(=O)c2cccc(F)c2)CC1 [CBK304338] | 57.1444 |

| SMILES | % of control remaining |
| --- | --- |
| O=C(O)c1ccccc1C(=O)Nc1c(-c2ccccc2)nc2ccccn12 [CBK287041] | 88.6911 |
| COc1cccc2ncn(C(C)c3nc(C)sc3C)c(=O)c12 (stereo not shown) [CBK306570] | 83.3706 |
| CC(C)Nc1nc2cc(Cl)c(Cl)cc2nc1OCc1cccnc1 [CBK115743] | 84.1538 |
| COC(=O)c1c(NC(=S)Nc2cccc(S(=O)(=O)N3CCOCC3)c2)sc2c1CCC2 [CBK267054] | 102.346 |
| CCOc1ccc(-c2csc(NC(=O)CC)n2)cc1 [CBK287764] | 85.0698 |
| Cc1cc(COC(=O)Nc2ccc3nc(C)ccc3c2)cc(C)n1 [CBK200127] | 88.585 |
| CC(C)c1ccc(/C=C/C(=O)NCc2ccc(C#N)cc2)cc1 [CBK149642] | 98.3502 |
| Cc1cc(S(=O)(=O)NC(=O)CC2CCOc3ccccc32)c(C)o1 (stereo not shown) [CBK304499] | 47.2378 |
| COC(=O)CN1C(=O)N2CCCN=C2c2ccc(Cl)cc21 [CBK284402] | 77.225 |
| Cc1oc(-c2ccccc2)nc1CCOc1ccc(NC(=O)c2ccc(Cl)cc2Cl)c(C(=O)O)c1 [CBK000168D] | 80.2539 |
| COc1ccc(C(O)Cn2c(=N)n(CCN3CCCCC3)c3ccccc32)cc1 (stereo not shown) [CBK262930C] | 52.5517 |
| COc1cccc(-c2cc3c(=S)[nH]ccn3n2)c1 [CBK288437] | 71.4362 |
| CC(C)CNc1nc2c(c(=O)n(Cc3ccccc3)c(=O)n2C)n1Cc1ccccc1 [CBK293946] | 90.5919 |
| Cc1cc(C2CCCCCN2Cc2c(C)nn(C)c2C)no1 (stereo not shown) [CBK284846] | 106.483 |
| CC(C)c1cccc(C(C)C)c1OCC(O)CN1CCCCC1 (stereo not shown) [CBK003079T] | 119.656 |
| CC(=O)N1CCc2ccc(NC(=O)c3cncc(-c4ccc(C(=O)N5CCOCC5)cc4)c3)cc21 [CBK160217] | 104.755 |
| CN1C(=O)COc2ccccc2C/C=C/C[C@@H]2[C@H]1CCCN2C(=O)CNS(C)(=O)=O [CBK292079] | 116.647 |
| Cc1ccc(C(=O)N2C[C@H]3CC[C@](O)(c4ccc(F)cc4)[C@H]3C2)o1 [CBK285267] | 87.0719 |
| Cn1ncc(N2CCC(CNC(=O)Cc3ccc(O)c(Cl)c3)C2)cc1=O (stereo not shown) [CBK307689] | 61.06 |
| CS(=O)(=O)N1CC2(CCN(Cc3nc4ccccc4[nH]3)CC2)c2ccccc21 [CBK126672] | 87.9041 |
| COc1ccc(OC[C@@H]2C3CCC(C3)N2C(=O)C2CC2)cc1 (stereo partly shown) [CBK284602] | 83.1594 |
| CC(C)(C)OC(=O)N1CCCC(C(=O)NCCc2ccccn2)C1 (stereo not shown) [CBK304281] | 79.0778 |
| O=C(NCCCn1ccnc1)c1cc2ncc(Br)cn2n1 [CBK277080] | 44.7613 |
| COc1ccc([C@@]23CC[C@@H](NC(=O)c4ccc(-c5ccccc5)cc4)CC2N(C)CC3)cc1OC (stereo partly shown) [CBK074973T] | 28.1343 |
| CC(=O)NCc1cccc(-c2cc(CO)cnc2-c2ccc(Cl)cc2)c1 [CBK161445] | 68.2799 |
